Km and Vmax data for two molecules are collected here from publication PMC7001965, “Molecular identification and functional characterization of a cyanogenic glucosyltransferase from flax (Linum unsitatissimum)” (PLoS ONE, 2020).

One may read the Km as the substrate concentration at which the rate is half of its maximum. As usually defined, the Vmax is the rate approached at saturating substrate.

In series [1] the target is LuCGT1 (UGT85Q1) (Linum usitatissimum, UniProt G9BER4). Particulars: read-out: Apparent Km; co-substrate 14C-UDP-glucose; HEPES 0.1 M pH 8.0, 30°C, 100 μg yeast lysate protein; glucosyl acceptor; unstable, cyanohydrin dissociates at assay pH.
Series [2] relates to O=c1ccn([C@@H]2O[C@H](CO[P@@](=O)(O)O[P@@](=O)(O)O[C@H]3O[C@H](CO)[C@@H](O)[C@H](O)[C@H]3O)[C@@H](O)[C@H]2O)c(=O)[nH]1. Put plainly: cells, lysate or membranes. Conditions: co-substrate acetone cyanohydrin, HEPES 0.1 M pH 8.0, 30°C, 100 μg yeast lysate protein, glucosyl donor, labelled compound.

`CC(C)(O)C#N` [acetone cyanohydrin]: in series [1], the Km worked out at 61.3 ± 4.5 µM. On to LuCGT1 (UGT85Q1) (Linum usitatissimum), for which, in series [2], the Km worked out at 248 ± 56 µM and the Vmax stood at 0.42 ± 0.052 nmol/min.
